The values below come from paper PMC4336329 (PLoS ONE, 2015).

Structures are written as SMILES. In all, about 310,000 compounds went through this assay and about 2,200 (0.71%) showed an effect of 50% or more. Effects have a minus sign here. This is one part of the list.

Sequence of human ether-à-go-go-related gene (hERG) potassium channel (Q12809 whole entry, looked up): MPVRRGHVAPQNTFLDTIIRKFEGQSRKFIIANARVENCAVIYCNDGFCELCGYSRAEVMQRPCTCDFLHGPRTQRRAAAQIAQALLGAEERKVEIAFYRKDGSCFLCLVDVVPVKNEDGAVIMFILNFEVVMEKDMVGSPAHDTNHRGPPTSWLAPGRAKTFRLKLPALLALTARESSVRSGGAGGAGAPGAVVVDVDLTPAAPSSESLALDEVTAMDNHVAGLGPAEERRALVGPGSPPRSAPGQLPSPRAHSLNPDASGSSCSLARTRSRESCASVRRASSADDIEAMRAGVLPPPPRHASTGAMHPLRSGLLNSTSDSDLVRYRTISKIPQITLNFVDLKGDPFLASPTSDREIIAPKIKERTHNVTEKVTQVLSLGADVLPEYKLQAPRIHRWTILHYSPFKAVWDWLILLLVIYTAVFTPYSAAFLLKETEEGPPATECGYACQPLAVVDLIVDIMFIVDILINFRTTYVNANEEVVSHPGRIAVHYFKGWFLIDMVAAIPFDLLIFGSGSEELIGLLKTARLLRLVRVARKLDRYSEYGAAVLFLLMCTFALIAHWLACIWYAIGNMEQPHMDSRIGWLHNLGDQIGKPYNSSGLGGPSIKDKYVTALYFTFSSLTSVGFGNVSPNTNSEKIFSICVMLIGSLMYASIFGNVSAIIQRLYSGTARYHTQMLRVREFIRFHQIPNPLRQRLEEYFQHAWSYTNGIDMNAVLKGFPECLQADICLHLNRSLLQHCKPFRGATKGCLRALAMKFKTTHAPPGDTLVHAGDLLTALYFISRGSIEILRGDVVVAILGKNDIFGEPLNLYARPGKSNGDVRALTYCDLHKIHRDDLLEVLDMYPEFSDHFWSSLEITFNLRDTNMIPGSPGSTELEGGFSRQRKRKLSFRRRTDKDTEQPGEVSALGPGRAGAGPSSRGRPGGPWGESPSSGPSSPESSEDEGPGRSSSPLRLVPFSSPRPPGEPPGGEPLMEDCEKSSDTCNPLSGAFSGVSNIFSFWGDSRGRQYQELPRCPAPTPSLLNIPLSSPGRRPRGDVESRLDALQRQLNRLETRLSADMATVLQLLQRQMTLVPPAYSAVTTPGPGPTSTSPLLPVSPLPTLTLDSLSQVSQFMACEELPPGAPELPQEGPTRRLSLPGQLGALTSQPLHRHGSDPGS

The test concerns the target human ether-à-go-go-related gene (hERG) potassium channel (human, UniProt Q12809). The test can be described thus: primary screen, population patch clamp on CHO cells stably expressing hERG.
With `Clc1ccc2nc(C3CCN(Cc4nnnn4C4CCCCC4)CC3)[nH]c2c1`, the “hERG current change (%, negative = inhibition) at 1uM” value is -16.2%.

As to `O=C(O)CC(c1cccc([N+](=O)[O-])c1)N1Cc2ccccc2C1=O` (centres unmarked), the “hERG current change (%, negative = inhibition) at 1uM” value is on record as 9.88%.

`CC(C)CC(=O)Nc1ccc(-c2nnn(CC(=O)NCc3ccco3)n2)cc1`: the “hERG current change (%, negative = inhibition) at 1uM” value is 11.3%.

In the case of `O=C(c1ccccc1)C(Nc1ccccn1)c1ccccc1` (centres unmarked), the “hERG current change (%, negative = inhibition) at 1uM” value was found to be 6.7%.

For the compound `CCCCOc1ccc(NC(=O)C2CC=CCC2C(=O)O)cc1` (centres unmarked), the “hERG current change (%, negative = inhibition) at 1uM” value is 14.3%.

Regarding `COc1ccc2c(=O)c(N3C(=O)c4ccccc4C3=O)coc2c1`, the “hERG current change (%, negative = inhibition) at 1uM” value is 5.81%.

For `Cc1nc(SCC(=O)NCc2ccccc2)c2oc3ccccc3c2n1`, the “hERG current change (%, negative = inhibition) at 1uM” value was -3.38%.

Consider `S=C(NC1CCCCC1)NN(c1ccccc1)c1ccccc1`, for which the “hERG current change (%, negative = inhibition) at 1uM” value stood at 7.06%.

Consider `CCCCN(CC)CCNC(=O)CCNC(=O)Cn1ccc2ccccc2c1=O`, for which the “hERG current change (%, negative = inhibition) at 1uM” value was determined as 13.5%.

Turning to `O=C(COc1ccc2c(-c3ccccc3)cc(=O)oc2c1)NCCCN1CCOCC1`, the “hERG current change (%, negative = inhibition) at 1uM” value amounted to 6.88%.

Turning to `O=C1OCCC1Sc1nnc(-c2cccs2)n1Cc1ccccc1` (centres unmarked), the “hERG current change (%, negative = inhibition) at 1uM” value was -4.67%.

Turning to `O=C(Cc1cccs1)N1CCCC(c2nc(-c3ccc(S(=O)(=O)N4CCCC4)cc3)no2)C1` (centres unmarked), the “hERG current change (%, negative = inhibition) at 1uM” value is reported as -5.87%.

With `CCOC(=O)C1=C(C)N=c2s/c(=C\c3ccc(OC(C)=O)cc3)c(=O)n2C1/C=C/c1ccccc1` (centres unmarked), the “hERG current change (%, negative = inhibition) at 1uM” value worked out at 9.01%.

For `CCOC(=O)c1c(NC(C)=O)sc2c(OC)c(Br)ccc12`, the “hERG current change (%, negative = inhibition) at 1uM” value is 5.49%.

Regarding `COc1ccc(OC)c(S(=O)(=O)Nc2cccc3c(O)cccc23)c1`, the “hERG current change (%, negative = inhibition) at 1uM” value is 12.9%.

As for `Fc1ccc(-c2csc3ncnc(N4CCN(Cc5ccccc5)CC4)c23)cc1`, the “hERG current change (%, negative = inhibition) at 1uM” value is 11.9%.

As to `CCCCc1nnc(NC(=O)CCS(=O)(=O)c2ccc(Cl)cc2)s1`, the “hERG current change (%, negative = inhibition) at 1uM” value was -3.33%.

Regarding `Cc1c(Cl)cnc(NC(=O)CSc2nnc(C)n2Cc2ccccc2)c1Cl`, the “hERG current change (%, negative = inhibition) at 1uM” value was 0.368%.

On to `Cc1ccc(SC(c2ccccc2)C(Cn2cncn2)C(=O)c2ccccc2)cc1` (centres unmarked), for which the “hERG current change (%, negative = inhibition) at 1uM” value turned out to be 14.3%.

On to `CCCNC(=O)c1cc(-c2ccc(OC)cc2)n(CCCOC)c1C`, for which the “hERG current change (%, negative = inhibition) at 1uM” value is 9.94%.

In the case of `O=C(CSc1nnc(CNC(=O)c2ccccc2F)o1)Nc1ccc2c(c1)OCCO2`, the “hERG current change (%, negative = inhibition) at 1uM” value is 11.3%.

As to `CC(=O)Nc1ccc(NC(=O)c2cccc3ccccc23)cc1`, the “hERG current change (%, negative = inhibition) at 1uM” value worked out at 6.38%.

For the compound `c1ccc(N2CCN(Cc3ccc4c(c3)OCO4)CC2)nc1`, the “hERG current change (%, negative = inhibition) at 1uM” value is on record as 11.6%.

As to `COc1ccc(SC[C@H](C)CN2CC[C@H](C)CCC2=O)cc1`, the “hERG current change (%, negative = inhibition) at 1uM” value was 9.24%.

`CCCC(=O)NC(=S)Nc1ccccc1C(=O)OC`: the “hERG current change (%, negative = inhibition) at 1uM” value is on record as 12.4%.

Regarding `Cc1ccccc1-c1nc(CS(=O)CC(=O)NC2CCCC2)c(C)o1` (centres unmarked), the “hERG current change (%, negative = inhibition) at 1uM” value amounted to 17.1%.

As for `COc1cc(/C=C2\C(=N)N3N=C(S(C)(=O)=O)SC3=NC2=O)ccc1OC(=O)c1cccs1`, the “hERG current change (%, negative = inhibition) at 1uM” value was -0.945%.

Consider `O=C(COC(=O)CSc1nnc(-c2ccc(Cl)cc2)o1)NCc1ccc2c(c1)OCO2`, for which the “hERG current change (%, negative = inhibition) at 1uM” value amounted to 4.3%.

In the case of `CCC(NC(=S)NCc1ccc(F)cc1)c1ccccc1` (centres unmarked), the “hERG current change (%, negative = inhibition) at 1uM” value is recorded as 5.49%.

In the case of `Cc1ccc(NC(=O)CCNS(=O)(=O)c2ccccc2F)cc1S(=O)(=O)N1CCOCC1`, the “hERG current change (%, negative = inhibition) at 1uM” value was -4.28%.

With `Cc1c(-c2ccccc2)[n+](=O)c2c(n1[O-])CCCC2`, the “hERG current change (%, negative = inhibition) at 1uM” value is listed as 11.5%.

As to `Oc1ccc(CNc2ccccc2O)cc1`, the “hERG current change (%, negative = inhibition) at 1uM” value stood at 1.86%.

Consider `CC(=O)Nc1cccc(C(=O)NC2CCCc3c2cnn3-c2cc(C)cc(C)c2)c1` (centres unmarked), for which the “hERG current change (%, negative = inhibition) at 1uM” value worked out at 12.3%.

`Cc1cccc(C(=O)Nc2ccccc2C(=O)NCc2cccnc2)c1`: the “hERG current change (%, negative = inhibition) at 1uM” value amounted to 1.78%.

As for `CCOc1ccc(NC(=O)Nc2cc(-c3ccccc3)sc2C(=O)OC)cc1`, the “hERG current change (%, negative = inhibition) at 1uM” value worked out at 0.713%.

For `O=C(NC1=NCCS1)C1CC2CCC1C2` (centres unmarked), the “hERG current change (%, negative = inhibition) at 1uM” value was determined as 4.15%.

With `CC(OC(=O)c1ccc(-c2ccc([N+](=O)[O-])cc2)o1)C(=O)NC(N)=O` (centres unmarked), the “hERG current change (%, negative = inhibition) at 1uM” value was -1.94%.

Take `CC(C)Cc1nnc(NC(=O)CCc2ccccc2)s1`: the “hERG current change (%, negative = inhibition) at 1uM” value came to 11.3%.

For `Cc1cc(C)c(C#N)c(SCC(=O)Nc2nnc(-c3ccccc3)s2)n1`, the “hERG current change (%, negative = inhibition) at 1uM” value turned out to be 12%.

For the compound `COc1ccc(CCNC(=O)CCc2ccc(S(=O)(=O)NCC(C)C)cc2)cc1`, the “hERG current change (%, negative = inhibition) at 1uM” value was determined as 13%.

In the case of `Nc1nnn(Cc2ccccc2)n1`, the “hERG current change (%, negative = inhibition) at 1uM” value was 14%.

`Cc1nnc(NC(=O)COc2ccc3c(C)cc(=O)oc3c2)s1`: the “hERG current change (%, negative = inhibition) at 1uM” value came to 4.06%.

Consider `O=C(c1cc(-c2ccccc2O)on1)N1CCc2ccccc2C1`, for which the “hERG current change (%, negative = inhibition) at 1uM” value worked out at 9.27%.

Regarding `CCN(CC)S(=O)(=O)c1ccc(S(=O)(=O)N2CCN(C(=O)c3ccco3)CC2)cc1`, the “hERG current change (%, negative = inhibition) at 1uM” value stood at 7.66%.
